Results from the supplement of paper PMC11417369.
The other results are listed elsewhere or left out.

tested on: PfHDP1 homeodomain (GST-tagged); test: gcPBM binding intensity (ln(normalized median fluorescence intensity)); higher = stronger DNA binding
Procedure, shortened: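 Binding of GST-tagged P. falciparum DNA-binding domains, expressed in E. coli and used at about 25 μg on average, was carried out for 1 h in 1× PBS containing 1% milk, 0.2 mg/ml BSA, 0.5% salmon testes DNA and 0.03% Triton X-100. The target was an Agilent 4 × 180k array of primer-extended double-stranded 36-bp intergenic genomic probes plus negative controls, read with Alexa488 anti-GST antibody at 488 nm. Binding intensity is the highest Masliner-normalised natural-log median intensity across replicate spots of either probe orientation.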

Sequence | gcPBM binding intensity (ln)
TTGATTAAAATTAGTACACACAAAATACATGCGGGG [CACACA_site5284] | 6.95
AATAAAAAATATATGAGTACTAAATTGTTTTCTTAA [XGTACX_site8573] | 6.22
GGGAAAATAAATAAAGTGCAGATATTAAAAGTTGTA | 7.04
TTGCATATTTCTAATTGTACATTATTTTATTTTATA [XGTACX_site8451] | 6.9
CTCAACGATAGAGAAACATGCAAGTATAAGCAACTA [TGCATGCA_site771] | 6.83
ATTTTACATATTTGCACACATATATTTAAATACATA [CACACA_site4627] | 10.8
GAGTTATTTCTTATTTAAGCATTCTACATATATATA [CACACA_negctrl_site239] | 6.6
AAGAAAATTAAATTAACACACATAAATATATATATA [CACACA_site1664] | 8.61
ATATTTATCTTTTTATGTACATATGCCCCTTTTCTG [XGTACX_site673] | 6.96
TCTTGGTTATTAAAAAAAAAAAAATATATTTTTCCT [TGCATGCA_negctrl_site445] | 6.06
GTCCTTATGGATGATAAATTATTTTAAATATTCTAT [XGTACX_negctrl_site200] | 5.96
ATTCACTAAAAAATTGCATGCAATAAATTTTTTTTT [TGCATGCA_site962] | 6.5
TTTTATTGTTGTTATACACACCATATAAAATATTTC [CACACA_site4983] | 6.79
AATTGATTTATATATTGTACATATAAATTTATGTAT [XGTACX_site7785] | 6.23
TAATTGTACGCCAATACACACAGAATTAGAATGTAG [CACACA_site102] | 6.59
ATAAATAAATGGTGTTGTACTCTATTATATATATAT [XGTACX_site7835] | 8.31
AATAAATATAGATTCACACACAAACATATATAAATA [CACACA_site7814] | 6.62
AAAAAAAAAATATATATATATATATATATATAATTT [GTGCAC_negctrl_site32] | 7.25
AAGAAAAAAATTTATACAAGAATTTTTTATTATTAA [TGCATGCA_negctrl_site587] | 5.99
TCATATGTTTCATGTTGTACATTGAAAGTTTGGCTA [XGTACX_site3202] | 6.26
AAATATGTACATATTATATATATATAATATATATTG [TGCATGCA_negctrl_site438] | 6.43
GTTCTAATATATTGCACACGTAAAAATATAGGTAAT [CACACA_site886] | 10.6

Sequence | gcPBM binding intensity (ln)
TGTTAATTAAAGGACTGTACACTAATAATTCTATAA [XGTACX_site5195] | 6.17
TTAAAAAGTGCGTAGTGTACTAATATAAATAATACA [XGTACX_site2922] | 6.47
TGAATAAATATATATACACACCCATATATATATATA [CACACA_site8833] | 9.21
AATGTATATAATATTAATATGTAAATATATAATCAA [CACACA_negctrl_site1683] | 6.39
AAATAAAAACCATATCGTACAAAAATTTTTGTATTT [XGTACX_site7497] | 6.27
ATATATATATATATATGTACTTAAAAATTTGTTTTG [XGTACX_site1514] | 9.38
GATCACTGAATAAAGGCACACATCTGACTAATTTTT [CACACA_site66] | 6.23
AAGTCAATTTTTTTTTTTTTTTTTTAACTTATTAAT [TGCATGCA_negctrl_site14] | 5.85
ATTATTATATATATAACACACATAATTATATACTTA [CACACA_site1563] | 6.83
TATACCTATAAATACACACACATATATAAATATGTA [CACACA_site6625] | 6.68
TCCTTAAAAATCTAAAAAGAAAAAAACATATATTTT [GTGCAC_negctrl_site123] | 6.04
ATATTTAAATCGAAGGTGCGTATTTCCTTTTTTTTT [GTGCAC_site9632] | 6.31
CTCATCCTTACATACACACACATATATATATATATA [CACACA_site103] | 9.2
ATTCATTTCTATTTTACACACAATAAGTAACTTAAT [CACACA_site2850] | 6.84
AGTATAAATAAATCATAAACATATATATATATATAT [GTGCAC_negctrl_site356] | 9.35
ATATATACATATAACACACACATATATATATATATA [CACACA_site2575] | 9.18
TTTATTTATTATTAAAGTACTAAATCATATTATTAT [XGTACX_site992] | 6.04
TATACATTATCTTATGCATGCGCATCTGCATATAAA [TGCATGCA_site266] | 7.31
TTTTCTTTTTTCTGTTGTACTAAAAATAATTTTGTA [XGTACX_site5171] | 6.51
CCACTAATAAATATTACACACATATATATATATATT [CACACA_site3128] | 6.84
TATTTATATATTATGTGTCCACATGTAAGCTATCTT [XGTACX_site3887] | 6.37
AACATATACCCAGGTACATGCAAATATATATATTAT [TGCATGCA_site878] | 6.86

Sequence | gcPBM binding intensity (ln)
ATATATATATATATGTGTACACAACAAAATAAAAAA [XGTACX_site7378] | 9.25
TTTAAAAATTAATTCTGTACACATTTTTATTTTATT [XGTACX_site8] | 6.61
TTCTTTCTTCAAAAGTGTACCAAATGTTAGAAAGGT [XGTACX_site4353] | 7.28
AAAAAAATAACAAAATGTATACAATATAACAAAAAT [GTGCAC_negctrl_site512] | 7.03
ATGACATGTTCTAAATGTACATTTTTTAACCCTTTT [XGTACX_site1858] | 6.69
ATAAATAAATAAGTACATATATATATGTATATATAT [TGCATGCA_negctrl_site223] | 7.34
TATACAAGTATATAGGTGCATATATAAGTATATATT [GTGCAC_site9994] | 9.55
TATGGTTACATTATATGTACTAAACGAATATTTTTA [XGTACX_site5694] | 6.05
TAATAACATACAGACACACACGTAAAAGCACGTGTA [CACACA_site4299] | 6.34
TACTTTCAAAAGATCACACATATATATATATATATA [CACACA_site5630] | 9.53
ATTATAATGTTAATGTGTACATATGATTCCTTAATT [XGTACX_site181] | 6.92
TATGTTTTTACATATTGTACATATTCTTGTAATACG [XGTACX_site1179] | 6.29
TATGTGTGCAAAAACTGTACACATTAAAGGTATATA [XGTACX_site7627] | 10.3
TTTTTAACCAAACATCAAAACATATTTTTTTGTTAT [CACACA_negctrl_site385] | 6.36
GTATACCTTTTGACATGTACGTATGTATATTTGGGT [XGTACX_site720] | 6.67
CATACATACAAACACACACACACACCCATATATATA [CACACA_site2918] | 7.05
TTCTCAAAATTAAAATAACAGATTAACGAACTAACG [CACACA_negctrl_site1720] | 6.35
TAATATATATATATATGTACATATATATTATGTATA [XGTACX_site4690] | 6.36
AGATTATTTAGAATGTGTACATATTACACATACATG [XGTACX_site8634] | 6.58
ACTACATTATGTCATACATGCATACATACGTGGTTT [TGCATGCA_site732] | 6.51
AGTAATTTAAGGAATACACACAAGAAAAAAATAAGA [CACACA_site6177] | 7.26
CATTAAAAGTATAATTGTACTTTTCATTTATATATT [XGTACX_site7536] | 6.27

Sequence | gcPBM binding intensity (ln)
TGGTAAAGGAGCAAGATGATAAATCTCCATAACTTT [CACACA_negctrl_site492] | 6.28
ATGTCTATAATAAGAACACACATATATTTAATTTAA [CACACA_site7394] | 6.26
TATATATATATGTATACACACATACAAATATGTAAA [CACACA_site9238] | 9.02
GTTGGTACCTTACTTTTACACACTTTTTTTTTTTTT [CACACA_site8441] | 6.51
CTATATTCGTTTAATAGTACATATATAACTAGACAA [XGTACX_site5770] | 6.6
AAAAGAAATATTTATACACACACACTAACATATATA [CACACA_site8580] | 7.04
TTATATATAATTACATGTACGTAGTATTATTTAAAT [XGTACX_site3418] | 6.51
TTATCATTTTAATGGTGTACTCAATAAAAACTTTAA [XGTACX_site4595] | 6.05
GTGAAAAAAAACATATGTACTTATACACTAATCTAT [XGTACX_site7600] | 6.56
AAAAAAAAAAAACACACACACACATAAATATATATA [CACACA_site149] | 7.01
TGTAAATTTGGCATCACACATAAATAAACATATAAA [CACACA_site4497] | 6.65
TATTAACATATATAAAGTACATTAAACAACATTGTA [XGTACX_site7667] | 6.44
TACACAAGCGGACACACACACATATATATATATATA [CACACA_site4832] | 9.37
AACATTCTAAAACACACACACACATATATATATATA [CACACA_site1052] | 9.25
TTTTCACTTTTAAAAACATGCATACTTTATAAAATA [TGCATGCA_site967] | 6.65
TATATATAAAAAAGCACACATACATACATACATAAT [CACACA_site890] | 6.85
ATAAAAAAAATTTGCACACCTTCAAAGTAATATATA [CACACA_site1584] | 10.2
AAAAAAAAAAAAAGTACATGCAATATGGATCTTAAA [TGCATGCA_site367] | 6.48
TAATTTTTTTTTTTTTTTTTTGTACTTCATTTTTAT [CACACA_negctrl_site1395] | 5.93
CATATAAAAGGACACACACACACATATAAATATGTA [CACACA_site6568] | 6.59
ATTTTTATAGAATGAACACACATATTATAGCATTTA [CACACA_site6842] | 6.33
TGCTATTTTATTTATTCTTTTATAAAAGTATAATAT [XGTACX_negctrl_site358] | 6.62
